{
  "source": "the supplement of paper PMC8728848",
  "binders": {"B1": {"name": "Als3-N (Candida albicans) (protein)", "chain": "KTITGVFNSFNSLTWSNAATYNYKGPGTPTWNAVLGWSLDGTSASPGDTFTLNMPCVFKFTTSQTSVDLTAHGVKYATCQFQAGEEFMTFSTLTCTVSNTLTPSIKALGTVTLPLAFNVGGTGSSVDLEDSKCFTAGTNTVTFNDGGKKISINVDFERSNVDPKGYLTDSRVIPSLNKVSTLFVAPQCANGYTSGTMGFANTYGDVQIDCSNIHVGITKGLNDWNYPVSSESFSYTKTCSSNGIFITYKNVPAGYRPFVDAYISATDVNSYTLSYANEYTCAGGYWQRAPFTLRWTGYRNSDAGSNGIVIVATTRTVTDSTTAVTTLPFDPNRDKTKTIEILKPIPTTTITTSYVGVTTSYLTKTAPIGETATVIVDIPYHTTTTVTSKWTGTITSTTTHTNPTDSIDTVIVQVP"}},
  "assay_in_all_cases": "glycan array binding signal (z-score within array); higher = stronger binding",
  "details_in_all_cases": "glycan notation: IUPAC condensed, linker removed",
  "key": {"[1]": {"target": "Neu5Ac(a2-3)Gal(b1-3)GlcNAc6S", "how_it_was_run": "(§1)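 The Consortium for Functional Glycomics database supplied 3228 glycan arrays, of which those lacking an available protein sequence were dropped. The binding signal, a within-array Z-score, was averaged across arrays of the same protein sequence and across linkers. Negative scores can be read as non-binding.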"}, "[2]": {"target": "Neu5Ac(a2-3)Gal(b1-3)[Fuc(a1-4)]GlcNAc", "how_it_was_run": "as §1"}, "[3]": {"target": "Neu5Ac(a2-3)Gal(b1-3)[Fuc(a1-4)]GlcNAc(b1-3)Gal(b1-3)[Fuc(a1-4)]GlcNAc", "how_it_was_run": "as §1"}, "[4]": {"target": "Neu5Ac(a2-3)Gal(b1-3)[Fuc(a1-4)]GlcNAc(b1-3)Gal(b1-4)[Fuc(a1-3)]GlcNAc", "how_it_was_run": "as §1"}, "[5]": {"target": "Neu5Ac(a2-3)Gal(b1-3)[GlcNAc(b1-6)]GalNAc", "how_it_was_run": "as §1"}, "[6]": {"target": "Neu5Ac(a2-3)Gal(b1-3)[Neu5Ac(a2-6)]GalNAc", "how_it_was_run": "as §1"}, "[7]": {"target": "Neu5Ac(a2-3)Gal(b1-3)[Neu5Ac(a2-6)]GlcNAc(b1-3)[Fuc(a1-3)[Gal(b1-4)]GlcNAc(b1-6)]Gal(b1-4)Glc", "how_it_was_run": "as §1"}, "[8]": {"target": "Neu5Ac(a2-3)Gal(b1-3)]Neu5Ac(a2-3)Gal(b1-4)]GlcNAc", "how_it_was_run": "as §1"}, "Neu5Ac(a2-3)Gal(b1-4)Glc": {"target": "Neu5Ac(a2-3)Gal(b1-4)Glc", "how_it_was_run": "as §1"}, "[9]": {"target": "Neu5Ac(a2-3)Gal(b1-4)GlcNAc", "how_it_was_run": "as §1"}, "[10]": {"target": "Neu5Ac(a2-3)Gal(b1-4)GlcNAc(b1-2)Man", "how_it_was_run": "as §1"}, "[11]": {"target": "Neu5Ac(a2-3)Gal(b1-4)GlcNAc(b1-2)Man(a1-3)[GlcNAc(b1-4)][Neu5Ac(a2-3)Gal(b1-4)GlcNAc(b1-2)Man(a1-6)]Man(b1-4)GlcNAc(b1-4)GlcNAc", "how_it_was_run": "as §1"}, "[12]": {"target": "Neu5Ac(a2-3)Gal(b1-4)GlcNAc(b1-2)Man(a1-3)[Neu5Ac(a2-3)Gal(b1-4)GlcNAc(b1-2)Man(a1-6)]Man(b1-4)GlcNAc(b1-4)GlcNAc", "how_it_was_run": "as §1"}, "[13]": {"target": "Neu5Ac(a2-3)Gal(b1-4)GlcNAc(b1-2)Man(a1-3)[Neu5Ac(a2-3)Gal(b1-4)GlcNAc(b1-2)Man(a1-6)]Man(b1-4)GlcNAc(b1-4)[Fuc(a1-6)]GlcNAc", "how_it_was_run": "as §1"}, "[14]": {"target": "Neu5Ac(a2-3)Gal(b1-4)GlcNAc(b1-2)Man(a1-3)[Neu5Ac(a2-6)Gal(b1-4)GlcNAc(b1-2)Man(a1-6)]Man(b1-4)GlcNAc(b1-4)GlcNAc", "how_it_was_run": "as §1"}, "[15]": {"target": "Neu5Ac(a2-3)Gal(b1-4)GlcNAc(b1-2)[Neu5Ac(a2-3)Gal(b1-4)GlcNAc(b1-4)]Man(a1-3)[GlcNAc(b1-4)][Neu5Ac(a2-3)Gal(b1-4)GlcNAc(b1-2)[Neu5Ac(a2-3)Gal(b1-4)GlcNAc(b1-6)]Man(a1-6)]Man(b1-4)GlcNAc(b1-4)GlcNAc", "how_it_was_run": "as §1"}, "[16]": {"target": "Neu5Ac(a2-3)Gal(b1-4)GlcNAc(b1-2)[Neu5Ac(a2-3)Gal(b1-4)GlcNAc(b1-4)]Man(a1-3)[GlcNAc(b1-4)][Neu5Ac(a2-3)Gal(b1-4)GlcNAc(b1-4)Man(a1-6)]Man(b1-4)GlcNAc(b1-4)GlcNAc", "how_it_was_run": "as §1"}, "[17]": {"target": "Neu5Ac(a2-3)Gal(b1-4)GlcNAc(b1-2)[Neu5Ac(a2-3)Gal(b1-4)GlcNAc(b1-6)]Man(a1-6)[Neu5Ac(a2-3)Gal(b1-4)GlcNAc(b1-2)Man(a1-3)]Man(b1-4)GlcNAc(b1-4)GlcNAc", "how_it_was_run": "as §1"}, "[18]": {"target": "Neu5Ac(a2-3)Gal(b1-4)GlcNAc(b1-2)[Neu5Ac(a2-3)Gal(b1-4)GlcNAc(b1-6)]Man(a1-6)[Neu5Ac(a2-3)Gal(b1-4)GlcNAc(b1-2)Man(a1-3)][GlcNAc(b1-4)]Man(b1-4)GlcNAc(b1-4)GlcNAc", "how_it_was_run": "as §1"}, "[19]": {"target": "Neu5Ac(a2-3)Gal(b1-4)GlcNAc(b1-3)Gal", "how_it_was_run": "as §1"}, "[20]": {"target": "Neu5Ac(a2-3)Gal(b1-4)GlcNAc(b1-3)Gal(b1-3)GlcNAc", "how_it_was_run": "as §1"}, "[21]": {"target": "Neu5Ac(a2-3)Gal(b1-4)GlcNAc(b1-3)Gal(b1-4)GlcNAc", "how_it_was_run": "as §1"}, "[22]": {"target": "Neu5Ac(a2-3)Gal(b1-4)GlcNAc(b1-3)Gal(b1-4)GlcNAc(b1-2)Man(a1-3)[Neu5Ac(a2-3)Gal(b1-4)GlcNAc(b1-3)Gal(b1-4)GlcNAc(b1-2)Man(a1-6)]Man(b1-4)GlcNAc(b1-4)GlcNAc", "how_it_was_run": "as §1"}, "[23]": {"target": "Neu5Ac(a2-3)Gal(b1-4)GlcNAc(b1-3)Gal(b1-4)GlcNAc(b1-3)Gal(b1-4)GlcNAc", "how_it_was_run": "as §1"}, "[24]": {"target": "Neu5Ac(a2-3)Gal(b1-4)GlcNAc(b1-3)Gal(b1-4)GlcNAc(b1-3)Gal(b1-4)GlcNAc(b1-2)Man(a1-3)[Neu5Ac(a2-3)Gal(b1-4)GlcNAc(b1-3)Gal(b1-4)GlcNAc(b1-3)Gal(b1-4)GlcNAc(b1-2)Man(a1-6)]GalNAc", "how_it_was_run": "as §1"}, "[25]": {"target": "Neu5Ac(a2-3)Gal(b1-4)GlcNAc(b1-3)Gal(b1-4)GlcNAc(b1-3)GalNAc", "how_it_was_run": "as §1"}, "[26]": {"target": "Neu5Ac(a2-3)Gal(b1-4)GlcNAc(b1-3)Gal(b1-4)GlcNAc(b1-3)[Neu5Ac(a2-3)Gal(b1-4)GlcNAc(b1-3)Gal(b1-4)GlcNAc(b1-6)]GalNAc", "how_it_was_run": "as §1"}, "[27]": {"target": "Neu5Ac(a2-3)Gal(b1-4)GlcNAc(b1-3)Gal(b1-4)GlcNAc(b1-6)[Gal(b1-3)]GalNAc", "how_it_was_run": "as §1"}, "[28]": {"target": "Neu5Ac(a2-3)Gal(b1-4)GlcNAc(b1-3)Gal(b1-4)[Fuc(a1-3)]GlcNAc", "how_it_was_run": "as §1"}, "[29]": {"target": "Neu5Ac(a2-3)Gal(b1-4)GlcNAc(b1-3)GalNAc", "how_it_was_run": "as §1"}},
  "note": "The other results are listed elsewhere or left out.",
  "data": [
    {"binder": "B1", "values": [
      {"measurement": "glycan array binding signal (z-score)", "setting": "[1]", "value": -0.221},
      {"measurement": "glycan array binding signal (z-score)", "setting": "[2]", "value": -0.209},
      {"measurement": "glycan array binding signal (z-score)", "setting": "[3]", "value": -0.104},
      {"measurement": "glycan array binding signal (z-score)", "setting": "[4]", "value": 0.004},
      {"measurement": "glycan array binding signal (z-score)", "setting": "[5]", "value": 0.011},
      {"measurement": "glycan array binding signal (z-score)", "setting": "[6]", "value": 0.127},
      {"measurement": "glycan array binding signal (z-score)", "setting": "[7]", "value": -0.237},
      {"measurement": "glycan array binding signal (z-score)", "setting": "[8]", "value": -0.216},
      {"measurement": "glycan array binding signal (z-score)", "setting": "Neu5Ac(a2-3)Gal(b1-4)Glc", "value": -0.155},
      {"measurement": "glycan array binding signal (z-score)", "setting": "[9]", "value": -0.241},
      {"measurement": "glycan array binding signal (z-score)", "setting": "[10]", "value": -0.01},
      {"measurement": "glycan array binding signal (z-score)", "setting": "[11]", "value": -0.08},
      {"measurement": "glycan array binding signal (z-score)", "setting": "[12]", "value": -0.137},
      {"measurement": "glycan array binding signal (z-score)", "setting": "[13]", "value": 0.105},
      {"measurement": "glycan array binding signal (z-score)", "setting": "[14]", "value": -0.321},
      {"measurement": "glycan array binding signal (z-score)", "setting": "[15]", "value": -0.066},
      {"measurement": "glycan array binding signal (z-score)", "setting": "[16]", "value": -0.085},
      {"measurement": "glycan array binding signal (z-score)", "setting": "[17]", "value": 0.647},
      {"measurement": "glycan array binding signal (z-score)", "setting": "[18]", "value": -0.237},
      {"measurement": "glycan array binding signal (z-score)", "setting": "[19]", "value": -0.308},
      {"measurement": "glycan array binding signal (z-score)", "setting": "[20]", "value": -0.226},
      {"measurement": "glycan array binding signal (z-score)", "setting": "[21]", "value": -0.127},
      {"measurement": "glycan array binding signal (z-score)", "setting": "[22]", "value": 0.395},
      {"measurement": "glycan array binding signal (z-score)", "setting": "[23]", "value": -0.185},
      {"measurement": "glycan array binding signal (z-score)", "setting": "[24]", "value": 4.72},
      {"measurement": "glycan array binding signal (z-score)", "setting": "[25]", "value": 0.294},
      {"measurement": "glycan array binding signal (z-score)", "setting": "[26]", "value": 0.051},
      {"measurement": "glycan array binding signal (z-score)", "setting": "[27]", "value": 0.08},
      {"measurement": "glycan array binding signal (z-score)", "setting": "[28]", "value": -0.281},
      {"measurement": "glycan array binding signal (z-score)", "setting": "[29]", "value": -0.068}
    ]}
  ]
}
